The list shows a part of the results.

Experiment [1] concerns HSkMC (human skeletal muscle cells). The experiment in a line: cytotoxicity call (relative viability < 0.9). As to conditions: 10 µM.
Experiment [2] has as its system HepG2. The experiment in a line: cytotoxicity call (relative viability < 0.9). As to conditions: 10 µM.
Experiment [3] has as its system S. aureus RN4220. The experiment in a line: growth inhibition call (relative growth <= 0.2). As to conditions: 50 µM.

As for `COc1ccc(NC(=O)Nc2ccc3c(c2)C(=O)N([C@@H](C)CO)C[C@@H](C)[C@H](CN(C)CC2CC2)OCCCC[C@@H](C)O3)cc1`, the cytotoxicity call in experiment [1] and in experiment [2] was “inactive” throughout. Also, in experiment [3], the growth inhibition call was “inactive”.

Consider `CO[C@@H](CCO)[C@@H](O)c1ccc(O)c(F)c1`, for which the cytotoxicity call in experiment [1] and in experiment [2] was “inactive” throughout. Besides, the growth inhibition call in experiment [3] was “inactive”.

With `CO[C@H]1O[C@H](CO)[C@@H](OC(=O)Nc2ccccc2-c2ccccc2)[C@H](OC(=O)Nc2ccccc2-c2ccccc2)[C@@H]1OC(=O)Nc1ccccc1-c1ccccc1`, the cytotoxicity call in experiment [1] and in experiment [2] was “inactive” throughout. For the same compound, in experiment [3], the growth inhibition call was “inactive”.

As to `Cc1noc(C)c1NC(=O)N(C)C[C@@H]1Oc2ccc(NS(=O)(=O)c3ccccc3)cc2CC(=O)N([C@@H](C)CO)C[C@H]1C`, the cytotoxicity call in experiment [1] and in experiment [2] was “inactive” in each case. Also, in experiment [3], the growth inhibition call was “inactive”.

Turning to `CCCN(C)C[C@H]1OCCCC[C@H](C)Oc2ccc(NC(=O)Nc3ccc(OC)cc3)cc2C(=O)N([C@H](C)CO)C[C@@H]1C`, the cytotoxicity call in experiment [1] and in experiment [2] was “inactive” in each case. Moreover, the growth inhibition call in experiment [3] is “inactive”.

As to `Cc1ccc(NC(=O)N(C)C[C@@H]2OCCCC[C@H](C)Oc3ccc(NC(=O)C4CCCCC4)cc3C(=O)N([C@H](C)CO)C[C@@H]2C)cc1`, the cytotoxicity call in experiment [1] and in experiment [2] was “inactive” in each case. Also, in experiment [3], the growth inhibition call was “inactive”.

For the compound `C[C@H]1CCCCO[C@H](CN(C)Cc2ccncc2)[C@@H](C)CN([C@@H](C)CO)C(=O)c2cc(NC(=O)C3CCCCC3)ccc2O1`, the cytotoxicity call in experiment [1] and in experiment [2] was “inactive” in each case. In addition, the growth inhibition call in experiment [3] is “inactive”.

On to `Nc1ccn[nH]1`, for which the cytotoxicity call in experiment [1] and in experiment [2] was “inactive” each time. The growth inhibition call in experiment [3] was “inactive”.

In the case of `CO[C@H](CN(C)C(=O)Nc1ccc(C(F)(F)F)cc1)[C@@H](C)CN(Cc1ccccc1Cl)[C@H](C)CO`, the cytotoxicity call in experiment [1] and in experiment [2] was “inactive” each time. For the same compound, the growth inhibition call in experiment [3] was “inactive”.

As for `C[C@@H]1CCCCO[C@H](CN(C)Cc2ccccc2)[C@H](C)CN([C@@H](C)CO)C(=O)c2cc(NS(=O)(=O)c3cccs3)ccc2O1`, the cytotoxicity call in experiment [1] and in experiment [2] was “inactive” throughout. For the same compound, in experiment [3], the growth inhibition call is “inactive”.

As for `C[C@@H]1CCCCO[C@H](CN(C)C(=O)Nc2cccc3ccccc23)[C@@H](C)CN([C@H](C)CO)C(=O)c2cc(NC(=O)Nc3ccccc3)ccc2O1`, the cytotoxicity call in experiment [1] and in experiment [2] was “inactive” each time. For the same compound, the growth inhibition call in experiment [3] was “inactive”.

Consider `C[C@H](CO)N1C[C@H](C)[C@H](CN(C)S(C)(=O)=O)Oc2ccc(NC(=O)CCCCCC(=O)Nc3ccccc3N)cc2C1=O`, for which the cytotoxicity call in experiment [1] and in experiment [2] was “inactive” in each case. Besides, the growth inhibition call in experiment [3] is “inactive”.

Turning to `C[C@@H]1CN([C@H](C)CO)C(=O)c2cc(NC(=O)CCC(F)(F)F)ccc2O[C@@H](C)CCCCO[C@@H]1CN(C)C(=O)NC1CCCCC1`, the cytotoxicity call in experiment [1] and in experiment [2] was “inactive” throughout. Further, the growth inhibition call in experiment [3] was “inactive”.

Take `C[C@@H]1CCCCO[C@@H](CN(C)Cc2ccncc2)[C@H](C)CN([C@@H](C)CO)C(=O)c2cc(NC(=O)CCCCCC(=O)Nc3ccccc3N)ccc2O1`: the cytotoxicity call in experiment [1] and in experiment [2] was “inactive” in each case. The growth inhibition call in experiment [3] is “inactive”.

Take `C[C@@H]1CN([C@H](C)CO)C(=O)c2cc(Br)cnc2O[C@H]1CN(C)C(=O)Nc1ccc(F)cc1`: the cytotoxicity call in experiment [1] and in experiment [2] was “inactive” each time. Moreover, the growth inhibition call in experiment [3] is “inactive”.

Regarding `C[C@@H]1CCCCO[C@H](CN(C)C(=O)Cc2ccccc2)[C@H](C)CN([C@@H](C)CO)C(=O)c2cc(NS(=O)(=O)c3cccs3)ccc2O1`, the cytotoxicity call in experiment [1] and in experiment [2] was “inactive” each time. Also, in experiment [3], the growth inhibition call is “inactive”.

As for `COc1ccc2cc1Oc1ccc(cc1)C[C@H]1c3cc(c(OC)cc3CCN1C)Oc1c(OC)c(OC)cc3c1[C@H](C2)N(C)CC3`, in experiment [1], the cytotoxicity call was “inactive”. For the same compound, the cytotoxicity call in experiment [2] is “active”. For the same compound, the growth inhibition call in experiment [3] was “inactive”.

In the case of `COc1ccccc1S(=O)(=O)N[C@H]1C=C[C@@H](CC(=O)N2CCN(C)CC2)O[C@H]1CO`, the cytotoxicity call in experiment [1] and in experiment [2] was “inactive” throughout. In experiment [3], the growth inhibition call was “inactive”.

As for `Cc1ccc(S(=O)(=O)N2C[C@@H](O)COC[C@H]3O[C@H](CC(=O)NCc4cccc(Cl)c4)CC[C@@H]32)cc1`, the cytotoxicity call in experiment [1] and in experiment [2] was “inactive” throughout. Further, the growth inhibition call in experiment [3] was “inactive”.

For the compound `CC1(CN)Cc2ccccc2C1`, the cytotoxicity call in experiment [1] and in experiment [2] was “inactive” throughout. Also, the growth inhibition call in experiment [3] is “inactive”.

`C[C@H]1CN([C@@H](C)CO)C(=O)Cc2cc(NC(=O)Nc3ccc(C(F)(F)F)cc3)ccc2O[C@@H]1CN(C)Cc1ccc(C(=O)O)cc1`: the cytotoxicity call in experiment [1] and in experiment [2] was “inactive” each time. Besides, the growth inhibition call in experiment [3] is “inactive”.

For the compound `COc1ccc2c3c(n(c2c1)C)[C@H](CO)N(C[C@]13CCN(CC1)C(=O)CN(C)C)C(=O)C1CCCCC1`, the cytotoxicity call in experiment [1] and in experiment [2] was “inactive” each time. In experiment [3], the growth inhibition call was “inactive”.

`COc1ccc(S(=O)(=O)Nc2cccc3c2O[C@@H](CN(C)Cc2ccc(Oc4ccccc4)cc2)[C@@H](C)CN([C@H](C)CO)C3=O)cc1`: the cytotoxicity call in experiment [1] and in experiment [2] was “inactive” in each case. The growth inhibition call in experiment [3] is “inactive”.

For `C[C@@H]1CCCCO[C@H](CN(C)S(=O)(=O)c2cn(C)cn2)[C@H](C)CN([C@@H](C)CO)C(=O)c2cc(NS(=O)(=O)c3ccccc3)ccc2O1`, the cytotoxicity call in experiment [1] and in experiment [2] was “inactive” in each case. The growth inhibition call in experiment [3] was “inactive”.

Turning to `Cc1ccc2sc(C(=O)O)cc2c1`, the cytotoxicity call in experiment [1] and in experiment [2] was “inactive” in each case. For the same compound, the growth inhibition call in experiment [3] was “inactive”.

As for `CN1C(=O)c2cc(NC(=O)Cc3cccs3)ccc2OC[C@H]2O[C@H](CC(=O)NCCc3ccncc3)CC[C@H]21`, the cytotoxicity call in experiment [1] and in experiment [2] was “inactive” throughout. Further, the growth inhibition call in experiment [3] is “inactive”.

For the compound `CCCC(=O)Nc1ccc2c(c1)C(=O)N(C)[C@@H]1CC[C@H](CC(=O)NCCN3CCCCC3)O[C@@H]1CO2`, the cytotoxicity call in experiment [1] and in experiment [2] was “inactive” each time. The growth inhibition call in experiment [3] is “inactive”.

Consider `Cc1c(C(=O)OCC(=O)N(CC(C)C)c2c(N)n(Cc3ccccc3)c(=O)[nH]c2=O)oc2ccccc12`, for which the cytotoxicity call in experiment [1] and in experiment [2] was “inactive” throughout. In addition, in experiment [3], the growth inhibition call was “inactive”.
